Assay results as given in PubChem BioAssay AID1745853 (National Center for Advancing Translational Sciences (NCATS), 2022).
The list shows a part of the results. Shown are side measurements of this screen, not its main read-out; they come without a call.

How the values were obtained:
Assay in all cases: Primary Screen for Target Class Profiling of Small Molecule Inhibitors of Methyltransferases
[1] = target: Glycine N-methyltransferase (Homo sapiens) (UniProt Q14749); settings: purified enzyme, MTase-Glo SAH luminescence; measured here: GNMT inhibition; at 40 µM; stronger effect = lower value
Description: (§1) PI: Matthew D. Hall Ph.D. and Quinlin M. Hanson Ph.D.
(§2) National Center for Advancing Translational Sciences (NCATS)
(§3) National Institute of Health (NIH), Rockville, MD
(§4) Target class profiling (TCP) is a chemical biology approach amenable to investigating understudied biological targets. TCP is achieved by developing a generalizable assay platform and applying it to screen a curated set of compound libraries against representative members of a target class. Small molecule methyltransferases (SMMTase) are a subclass of methyltransferase that act on metabolites to modulate signaling pathways, metabolize xenobiotics, or balance the available methyl pool. We screened four curated libraries totaling 27,574 unique compounds against the SMMTases nicotinamide N-methyltransferase (NNMT), phenylethanolamine N-methyltransferase (PNMT), histamine N-methyltransferase (HNMT), glycine N-methyltransferase (GNMT), catechol O-methyltransferase (COMT), and guanidinoacetate N-methyltransferase (GAMT). The data generated by this TCP can be leveraged for informed tool molecule development. For example, in the associated publication we identified a chemotype of HNMT-selective inhibitors. Additionally, we identified a putative SMMTase-selective inhibitor with potential as a tool molecule for studying broader methyltransferase biology.
(§5) High-through put screening assays were developed at the National Center for Advancing Translational Science (NCATS) for the enzymes NNMT, PNMT, HNMT, GNMT, COMT, and GAMT. Enzymatic activity was measured as a function of SAM cofactor conversion using the MTase Glo kit (Promega) for all enzymes. All assays were performed in 1536-well format with substrates and SAM concentrations at KM values. Enzyme concentration and assay timing were optimized for 10-20% SAM conversion. Initial screening of 27,574 compounds was done as single-point assays using the highest compound concentration (40 uM). […] These compounds were replated in 11-point dose response and assayed against NNMT, PNMT, HNMT, GNMT, COMT, GAMT, and a counter-assay. The IC50 and efficacy (maximal response) values were determined for each dose-response curve. These values are also accounted for in the area under the curve (AUC) values.
(§6) PROTOCOL TABLE (as described by Inglese J, Shamu CE and Guy RK. 2007)
(§7) SEQUENCE No. (e.g., 1, 2, 3, etc.); […] (e.g., Cells, Incubation, Reagent, etc.); VALUE; DESCRIPTION.
(§8) 1; Reagent; 2 uL; SMMTase Enzyme (2x) in reaction buffer, columns 1- 48.
(§9) 2; Reagent; 1 uL; SAM (4x) in reaction buffer, columns 1-48.
(§10) 3; Controls; 23 nL; DMSO in column 4; sinefungin in DMSO (0 uM - 40 uM) in 7-point 1:2 dilution series (n = 2) in column 2.
(§11) 4; Compounds; 23 nL; Columns 5-48.
(§12) 5; Reagent; 1 uL; Substrate (4x) in reaction buffer, columns 2-48.
(§13) 6; Time; 20-30 min; Incubation.
(§14) 7; Reagent; 1 uL; MTase-Glo reagent (5X), columns 1-48.
(§15) 8; Time; 30 min; Incubation.
(§16) 9; Reagent; 5 uL; MTase-Glo Detection reagent, columns 1-48.
(§17) 10; Time; 30 min; Incubation, luminescence evolution.
(§18) 11; Detection; Luminescence; ViewLux uHTS Microplate Imager (PerkinElmer).
(§19) NOTES (numbers refer to Sequence numbers above)
(§20) 1, 2, 5. White Medium Binding Greiner 1536-well plates (Cat #789175-F, Greiner Bio-One, Monroe, NC); Reaction buffer: 50 mM Tris, pH 8.0, 3 mM MgCl2, 1 mM EDTA, 50 mM NaCl, 1 mM DTT, and 0.1 mg/mL BSA. Evaporation was prevented by covering assay plates with metal lids containing holes to allow gas diffusion.
(§21) 1. Six SMMTase were profiled: HNMT, GNMT, PNMT, COMT, NNMT, GAMT
(§22) 5. The corresponding substrate was used for each enzyme: HNMT - 5.3 uM Histamine; GNMT - >500 uM Glycine; PNMT - 16.2 uM Norephinephrine; COMT - 13.7 uM Norephinephrine; NNMT - 3.8 uM Nicotinamide; GAMT - 2.5 uM Guanidinoacetate.6, 8, 10. Room temperature
(§23) 6. Final reaction conditions: 10 nM COMT, 5 uM SAM, 15 uM norepinephrine, 50 mM Tris, pH 8.0, 3 mM MgCl2, 1 mM EDTA, 50 mM NaCl, 1 mM DTT, and 0.1 mg/mL BSA; refer to tables 2 and S1 for specific timing.
8. […]

[2] = target: Guanidinoacetate N-methyltransferase (Homo sapiens) (UniProt Q14353); settings: purified enzyme, MTase-Glo SAH luminescence; measured here: GAMT inhibition; at 40 µM; stronger effect = lower value
Description: as §1, §2, §3, §4, §5, §6, §7, §8, §9, §10, §11, §12, §13, §14, §15, §16, §17, §18, §19, §20, §21, §22, §23
8. […]

[3] = target: Histamine N-methyltransferase (Homo sapiens) (UniProt P50135); settings: purified enzyme, MTase-Glo SAH luminescence; measured here: HNMT inhibition; at 40 µM; stronger effect = lower value
Description: as §1, §2, §3, §4, §5, §6, §7, §8, §9, §10, §11, §12, §13, §14, §15, §16, §17, §18, §19, §20, §21, §22, §23
8. […]

[4] = target: Nicotinamide N-methyltransferase (Homo sapiens) (UniProt P40261); settings: purified enzyme, MTase-Glo SAH luminescence; measured here: NNMT inhibition; at 40 µM; stronger effect = lower value
Description: as §1, §2, §3, §4, §5, §6, §7, §8, §9, §10, §11, §12, §13, §14, §15, §16, §17, §18, §19, §20, §21, §22, §23
8. […]

[5] = target: Phenylethanolamine N-methyltransferase (Homo sapiens) (UniProt P11086); settings: purified enzyme, MTase-Glo SAH luminescence; measured here: PNMT inhibition; at 40 µM; stronger effect = lower value
Description: as §1, §2, §3, §4, §5, §6, §7, §8, §9, §10, §11, §12, §13, §14, §15, §16, §17, §18, §19, §20, §21, §22, §23
8. […]
On the % scale 0 is the no-effect control and ±100 the full control effect.

`COC(=O)c1ncn2c1C(=O)N(Cc1cccc(OC)c1)C(C)(C(=O)NC1CCCCCC1)C2` (stereo not given) was tested, and the activity change, negative = inhibition [1] was -0.549%, the activity change, negative = inhibition [2] was 1.36% and the activity change, negative = inhibition [3] was 2.44%. For the same compound, the activity change, negative = inhibition [4] was -1.39% and the activity change, negative = inhibition [5] was 0.434%.
Compound `CC(C)OCCCn1c(=O)c2ccccc2n2c(-c3ccc(F)c(F)c3)nnc12` has an activity change, negative = inhibition [1] of -2.63%, an activity change, negative = inhibition [2] of 5.82% and an activity change, negative = inhibition [3] of 5.92%. For the same compound, the activity change, negative = inhibition [4] was 3.19% and the activity change, negative = inhibition [5] was -2.07%.
In the case of `CC(C)(N)c1ncc(-c2ccc(OC(F)(F)F)cc2)[nH]1`, the activity change, negative = inhibition [1] is reported as -3.42%, the activity change, negative = inhibition [2] is reported as 1.05% and the activity change, negative = inhibition [3] is reported as 6.17%. The activity change, negative = inhibition [4] was -14.3% and the activity change, negative = inhibition [5] was 3.47%.
`O=C(Cn1nc2n(CCc3ccccc3)c(=O)c3ccccc3n2c1=O)Nc1ccc2c(c1)OCO2` gave an activity change, negative = inhibition [1] of 7.27%, an activity change, negative = inhibition [2] of 0% and an activity change, negative = inhibition [3] of 8.4%. For the same compound, the activity change, negative = inhibition [4] was -1.35% and the activity change, negative = inhibition [5] was 3.28%.
For `CCCC1c2ccc(C)n2CCN1C(=O)Nc1ccc(C)c(Cl)c1` (stereo not given), the activity change, negative = inhibition [1] was 1.21%, the activity change, negative = inhibition [2] was 0% and the activity change, negative = inhibition [3] was -2.02%. For the same compound, the activity change, negative = inhibition [4] was 6.88% and the activity change, negative = inhibition [5] was 3.42%.
`CC1CCCC(NC(=O)C2(C)Cn3c(nc4ccccc43)C(=O)N2Cc2ccco2)C1C` (stereo not given) gave an activity change, negative = inhibition [1] of 0.896%, an activity change, negative = inhibition [2] of 0.081% and an activity change, negative = inhibition [3] of 4.94%. It also gave an activity change, negative = inhibition [4] of 3.33% and an activity change, negative = inhibition [5] of -0.542%.
`CCOc1ccc(C(=O)Cn2nc3n(Cc4ccccc4)c(=O)c4ccccc4n3c2=O)cc1` was tested, and the activity change, negative = inhibition [1] was 5.85%, the activity change, negative = inhibition [2] was 0% and the activity change, negative = inhibition [3] was 13.4%. It also gave an activity change, negative = inhibition [4] of 11.4% and an activity change, negative = inhibition [5] of 6.9%.
In the case of `C=Cc1ccc(Cn2nc3n(C)c(=O)c4ccc(C(=O)NC(C)CC)cc4n3c2=O)cc1` (stereo not given), the activity change, negative = inhibition [1] is reported as 5.03%, the activity change, negative = inhibition [2] is reported as 0% and the activity change, negative = inhibition [3] is reported as 7.95%. It also gave an activity change, negative = inhibition [4] of 0.881% and an activity change, negative = inhibition [5] of 6.31%.
In the case of `O=C(CCc1nnc2n(CCc3ccccc3)c(=O)c3ccccc3n12)NCc1ccc(F)cc1`, the activity change, negative = inhibition [1] is reported as -2.4%, the activity change, negative = inhibition [2] is reported as -24.1% and the activity change, negative = inhibition [3] is reported as 10.6%. It also gave an activity change, negative = inhibition [4] of 15.6% and an activity change, negative = inhibition [5] of -1.57%.
`O=C(Nc1cccnc1)c1ccc2c(c1)OCCN(c1cccc(OC(F)(F)F)c1)C2` showed an activity change, negative = inhibition [1] of -10.8%, an activity change, negative = inhibition [2] of -9.49% and an activity change, negative = inhibition [3] of -4.87%. For the same compound, the activity change, negative = inhibition [4] was -21.3% and the activity change, negative = inhibition [5] was -7.45%.
